First the molecules themselves.
B1: CPEB3 Ribozyme (parent)
chain: UAACAGGGGGCCACAGCAGAAGCGUUCACGUCGCAGCCCCUGUCAGAUUCUGGUGAAUCUGCGAAUUCUGCUGUAUAUCUC

The source gives no read counts; variants with many changes may rest on few reads.

In the RNAGym collection of RNA variant scans (doi:10.1093/nar/gkz1192) one finds self-cleavage data, which are given here for 34 variants.

The variants in this data set derive from B1. Nature of the data set: self-cleavage, relative activity (ratio to wild type); higher = more cleavage; in vitro, sequencing. The method in brief:
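Relative activity compares each variant's cleaved/total read fraction with that of the unmutated ribozyme. To get these fractions, barcoded CPEB3 ribozyme libraries from rounds of error-prone PCR were transcribed with T7 RNA polymerase for 5 hours at 37°C and then given 15 min of DNase I treatment before EDTA was added. The RNAs were reverse transcribed with template switching and sequenced on Illumina, and DNA sequencing linked barcodes to variants. A minimum of 5 reads applied, and three batches were averaged.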
On to UAACAGGCGGCCACAGCAGAAGCGUUCACGUCGCAGCCCCUGGCAGAUACCGGUGAAUCUGCGAAUUCUGCUGUAUAUCUC, for which the self-cleavage came out at 0.22. Regarding UAACAGGAGGCCACAGCAGAAGCGUUCACGUCGCAGCCCCUGUCAGAUUCUGGCGAGUCUGCGAAUUCUGCUGUAUAUCUC, the self-cleavage is 0.18.

In the case of UAACAGGCGGCCAAAGCAGAAGCGUUCACGUCGCUGCCCCCGUCAGAUUCUGGUGAAACUGCGAAUUCUGCUGAAUAUCUC, the self-cleavage amounted to 0.05. In the case of UAACAGGAGGCCACAGCAGAAGCGUUCACGUCGCAGCCCCUGUCAGAUUCUGGCGAGUCUGCGAAUUCUGCUGUAUACCUC it was 0.17. Regarding UAACAGGCGGCCACAGCAGAAGCGUUCACGUCGCAGCCCCUGUCGGAUCCUGGUGAAUCUGCGAAUUCUGCUGUAUAUCUC, the self-cleavage was 0.36. In the case of UAACAGGAGGCCACAGCAGAAGCGUUCACGUCGCAGCCCCGGUCAGAUUCUGGUGUGUCUGCGAAUUCUGCUGUAUAUCUC, the self-cleavage was determined as 0.17. For UAACAGGCGGCCACAGCAGAAGCGUUCACGUCGCUGCCCCUGUCAGAUUCUGGUGAAUCUGCGAAUCCUGCUGUAUACCUC, the self-cleavage stood at 0.04. The figure for UAACAGGCGGCCACAGCAGAAGCGUUCACGUCGCAGCCCCAGUCGGAUUCUGGUGAAUCUGCGAAUUCUGCUGUAUAUCUC is 0.15; for UAACAGGCGGCCACAGCAGAAGCGUUCACGUCGCAGCCCCUGUCAGAUUCUGGUGGAUCUGCGAAUUCCGCUGUAUAUCUC it is 0.08; for UAACAGGCGGCCCCAGCAGAAGCGUUCACGUCGCAGCCCCUGUCAGAUUCCGGUGAAUCUGCGAUUUCUGCUGUAUAUCUC it is 0.04.

Consider UAACAGGCGGCCACAGCAGAAGCGUCCACGUCGCAGCCCCUGUCAGAUUCUGGUGAAUCUGCGAAUUCUGCUGUGUAUCUC, for which the self-cleavage came out at 0.07. In the case of UAACAGGAGGCCACAGCAGAAGCGUUCACGUCGCAGCCCCCGUCAGAUUCUGGUGAAUCUGCGAAUUCAGCUGUAUAUCUC it was 0.21; in that of UAACAGGCGGCCACGGCAGAAGCAUUCACGUCGCAGCCCCUGCCAGAUUCUGGUGAAUCUGCGAAUUCUGCUGUAUAUCUC, 0.03. In the case of UAACAGGCGGCCACAGCAGAAGCGUUCACGCCGCAGCCCCUGUCUGAUUCUGGUGAAUCUGCGAAUUCUGCUGUAUAUCUC it was 0.03. The figure for UAACAGGCGGCCACAGCGGAAGCGUUCACGUCGCGGCCCCUGUCAGAUUCUGGUGGAUCUGCGAAUUCUGCUGUAUAUCUC is 0.21. Consider UAACAGGAGGCCACAGCAGAAGCGUUCACGUCGCAGCCCCCGUCAGAUUCUGGUGAAUCCGCAAAUUCUGCCGUACAUCUC, for which the self-cleavage was 0.05. In the case of UAACAGGAGGCCACAGCAGAAGCGUUCACGUCGCAGCCCCCGUCAGAUUCUGGUGAAUCUGCGAAACCUGCUGUAUACCUC it was 0.06; in that of UAACAGGCGGCCACAGCAGAAGCGUUCACGUCGCAGCCCCUGUCAGAUUCUGGUGAAUCUGCGGAUUCUGCUGUAUAACUC, 0.06.

Consider UAACAGGAGGCCACAGCAGAAGCGUUCACGUCGCAGCCCCUGUCAGAUACUGGUGAAUCCGCGAAGUCUGCUGUAUAUCUC, for which the self-cleavage worked out at 0.07. In the case of UAACAGGAGGCCACAGCAGAAGCGUUCACGUCGCAGCCCCUGUCAGAUUCCGGUGGAUCUGCGAAUUCUGCUGUAUAUCUC it was 0.19; in that of UAACAGGCGGCCACAGCAGAAGCGUUCACGUCGCAGCCCCUGUCAGAUCCUGGUGAAUCUGCGGAUUAUGCAGUAUACCUC, 0.04; in that of UAACAGGCGGCCACAGCAGAAGCGUUCACGUCGCAGCCCCUGUCAGCUUCUGGCGAAUCUGCGAAUUCUGCUGUAUAUCUC, 0.18. The figure for UAACAGGCGGCCACAGCUGAAGCGUACACGUCGCAGCCCCUGUCAGGUUCUGGUGAAUCUGCGAAUUCUGCUGUAUAUCUC is 0.05; for UAACAGGCGGCCACAGCUGAAGCGUUCACGUCGCAGCCCCAGUCAGAUUCUGGUGAAUCUGUGAAUUUUGCUGUAUAUCUC it is 0.04; for UAACAGGAGGCCACAGCAGAAGCGUUCACGUCGCAGCCCCUGCCAGAUUCCGGUGAAUCUGCGAAUUCUGCUGUAUAUCUC it is 0.08. The figure for UAACAGGCGGCCACAGCAGAAGCGUUCACGUCGCAGCCCCGGUCAGAUUCUGGUGAAUCUGCGAAUUCUGCAGUAUAUCUC is 0.16; for UAACAGGAGGCCACAGCAGAAGCGUUCACGUCGCAGCCCCUGUCAGAUUCUGGUGAAUCUGCGAAUCCUGCUGUAUAUCAC it is 0.05; for UAACAGGAGGCCACAGCAGAAGCGUUCACGCCGCAGCCCCUGUCAGAUUCUGGUGAAUCUGCGAAUUCUGCUGCAUAUCCC it is 0.1. With UAACAGGCGGCCGCAGCAGAAGCGUUCACGUUGCAGCCCCUGUCAGAUUCUGGCGAAUCUGCGAAUUCUGCUGUAUAUCUC, the self-cleavage came out at 0.06. In the case of UAACAGGAGGCCACAGCAGAAGCGUUCACGUCGCAGCCCCUGUCAGAUUCUGGUGAAUCUGCGAAUUCCGCUGUUUAUCUC it was 0.15; in that of UAACAGGCGGCCACAGCAGGAGCGUUCGCGUUGCAGCCCCUGUCAGAUUCUGGUGAAUCUGCGAAUUCUGCUGUAUAUCUC, 0.06. UAACAGGCGGCCACAGCAGAAGCGUUCACGUCGCAGCCCCCGUCAGAUUCUGGUGAAUCAGCGAAUUCUGCUGUAUAUCUC: the self-cleavage came to 0.11.

UAACAGGCGGCCACAGCGGAAGCGUUCACGUUGCAGCCCCUGUCGGACUCUGGUGAAUCAGCGAAUUCUGCUGUAUAUCUC: the self-cleavage was 0.06. The figure for UAACAGGCGGCCACAGCAGAGGCGUUCACGUCGCUGCCCCUGUCAGCCUCUGGUGAAUCUGCGAAUCCUGAUGUAUAUCUC is 0.27.
